According to publication PMC12136788:
Some of the results follow.

T1: UNK ZnF1-3 (human, UniProt Q9C0B0 31-174)
T1 sequence: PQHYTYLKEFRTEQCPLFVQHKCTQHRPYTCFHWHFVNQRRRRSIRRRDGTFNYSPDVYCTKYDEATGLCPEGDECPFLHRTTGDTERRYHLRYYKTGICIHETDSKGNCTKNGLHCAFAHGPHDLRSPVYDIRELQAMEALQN

B1: chr17:64801638:64801639:+_ENSG00000154229_ENST00000413366|hu_mus|hu_hu_hu_mus_False|1_8 (ssRNA)
RNA: GGGAGUUCUACAGUCCGACGAUCUAUAUAUAUAUAUACAUAUGUACACAUAUAUAGUAAAACCCUAGUUAAACGUGUAAAGUAGCCAUUCAUUUUUAAAAUUACAUCUACAUUAAAAAAUUAAUAUAUCUGAUACAGUGCCCACAACAGAGGAUUGAGCAUCA
B2: 43796035_43796155_616_CDS_ENSG00000152242_ENST00000321319|human|control|control (ssRNA)
RNA: GGGAGUUCUACAGUCCGACGAUCCAGGUGACCACUAGAGGAAGGGGAAAGCAUGCAGUGAUUAGAGGAGUCACUCUCAUAAACUCGGCCAGUUGUAGGCUUGUCACUCUCUGUGGAUGCUAACUGAGACUCAGAAGAGUCCCUCAACAGAGGAUUGAGCAUCA
B3: chr11:29999759:29999760:-_ENSMUSG00000020315_ENSMUST00000011877|mus_hu|FALSE|FALSE (ssRNA)
RNA: GGGAGUUCUACAGUCCGACGAUCUACACUUACCAAUGAUUUAAAGGGUUUAUUAUACAUCUAGUUUUAUUAUACUUUGUACUAGAAUUAUCUCAAACGUACAAUAUAAUGUAUUUCAGCAAAAAAAAAAAAUUGAAAUUACAGCAACAGAGGAUUGAGCAUCA
B4: 37446505_37446897_2516_CDS_ENSMUSG00000026113_ENSMUST00000027287|mouse|control|control (ssRNA)
RNA: GGGAGUUCUACAGUCCGACGAUCAUCCCGGUUUCCUGUGAUGACCGGCAGCAUGUCAUUUGAUGCAUUCGAAGUGGCCUGAGUGACUUUAAAGGUCACAUUCCUCAGGUCCAUGAUUCCAAGGCUCAUGUCCUCCAACAUGGCCAACAGAGGAUUGAGCAUCA
B5: chr8:74529624:74529625:-_ENSG00000040341_ENST00000355780|hu_mus|FALSE|FALSE (ssRNA)
RNA: GGGAGUUCUACAGUCCGACGAUCAAGCGCUUUCAUCGCAGCAUUGUGUCUGGCAGCUUGUCGAGUCUUCCCUUCACCAAAGAAUUCAUUAUUUCCUACAGUUAACUGAACAUAAAAGAUCUUGGGCAUUGGGCAAUGAUACCUCAACAGAGGAUUGAGCAUCA
B6: chr6:106732989:106732990:-_ENSMUSG00000005362_ENSMUST00000049675|mus_mus|motif|central (ssRNA)
RNA: GGGAGUUCUACAGUCCGACGAUCACUGCCGAUUUUAAGGAGCUGAAUUCUCAAUACAUCAUCAAUAGGAAGACAAGCAGCGGCUCUGUAAGAAAAGUCUAUUGGAUUUUCAGGAAGAGAAUCAUCUUUGAGAUUUUCAUCCCACAACAGAGGAUUGAGCAUCA
B7: 103732641_103732761_1005_3pUTR_ENSMUSG00000044098_ENSMUST00000106806|mouse|control|control (ssRNA)
RNA: GGGAGUUCUACAGUCCGACGAUCAGCAAGAAACUCCUCAGAAAAUCUCUCCAUCUCCAUUGGAGACAAAAAUGAGAGUUCGUCCAUGUAUGCAUGAAGGACAAGAGCACCCCCAUUGGACUGGUGUUCUUCGUGAAUAAAGUUCAACAGAGGAUUGAGCAUCA
B8: 72565724_72565844_983_CDS_ENSMUSG00000056429_ENSMUST00000070524|mouse|control|control (ssRNA)
RNA: GGGAGUUCUACAGUCCGACGAUCAAGUGGUGAGCCUUCUUCCGGCUCUGUGUCACCCUCUUCAAUCUCCUUGGUUUCCACGUCUUCAGUAGGCUCUGAAGACUUAUCUCCUUUCUCUGGCUUUAAAGAGAAGUCAGAGUCCCCCAACAGAGGAUUGAGCAUCA
B9: chr2:148701057:148701058:-_ENSG00000115947_ENST00000542387|hu_mus|FALSE|FALSE (ssRNA)
RNA: GGGAGUUCUACAGUCCGACGAUCAUGACUGCAAGUUUUUGUUGACACUGAAAUGUUUCUGUAGGACUUCAAGCACAGUUGAAUCUUCAGAGAGACAGUGAACAUUCUCAUUCCAUCUCUCAGCAAAAGCCUUAUCUGGGAAUUCAACAGAGGAUUGAGCAUCA
B10: chr19:8913615:8913616:-_ENSMUSG00000071658_ENSMUST00000096259|mus_hu|mus_mus_mus_hu_False|68_88 (ssRNA)
RNA: GGGAGUUCUACAGUCCGACGAUCAGGGUACCAAAACCUUCUGCCUGAGAUAGGUGCCCCACCCAGUCAGGACUUGGAGCUGAAAGUAUCUGAUGCAGAAGCAGUGACUAUACGAAAGGAGGCCCCUGGGGAGGGCCAGGCCAGCAACAGAGGAUUGAGCAUCA
B11: chr2:179515052:179515053:+_ENSMUSG00000000305_ENSMUST00000000314|mus_hu|mus_mus_mus_hu_False|68_78 (ssRNA)
RNA: GGGAGUUCUACAGUCCGACGAUCGCUGUCCCAUGCAGUCACCGUGAACGCCACCUGCUCUGAGGGGAUCUUCAACUCCCGGGUGGCGAAGACUGUCCCAUCUGCCCCAACUUUGAAGUCCAUGCUGUUGGUCUCAUAUUGUGUCAACAGAGGAUUGAGCAUCA
B12: chr8:95500983:95500984:-_ENSG00000164944_ENST00000437199|hu_hu|hu_hu_hu_mus_True|78_108 (ssRNA)
RNA: GGGAGUUCUACAGUCCGACGAUCAGAAGGAUUUUUACGAGUAAAGGACCGUACAUGGACGACCUCUCCACUGCCUCCACUAACAAACUUUCCUCUCGAGCCUCCACUGCCGCUAUUUGUACUAGCCCAGGACGGUCCCAGGCCCAACAGAGGAUUGAGCAUCA
B13: chr2:119558892:119558893:+_ENSMUSG00000027304_ENSMUST00000028767|mus_mus|motif|central (ssRNA)
RNA: GGGAGUUCUACAGUCCGACGAUCGCAAGAACCCCACAGCUCCACGGUAAUACUGAGUGUGCUGAGUGGCGGGACUGUGCGGGUUACAAACCAGAAGCAGGCGGGAGGGCAAACACAAACCUAAAGAGAAGAAGCCCCAUCCAACAACAGAGGAUUGAGCAUCA
B14: chr3:138121269:138121270:+_ENSG00000158186_ENST00000289104|hu_mus|FALSE|FALSE (ssRNA)
RNA: GGGAGUUCUACAGUCCGACGAUCUCAACACACAAAAGGUUUGGAAGCUGUAGCCCUGUCUCCUGGGAGAGGCAGCAAAGCCAGCCCCGGCCUGCUUCUGCCCCCUCCUCCCUCAUUCCCUUCCAAUGCCCAGUCCAGAGCCAACAACAGAGGAUUGAGCAUCA

Each binder was assayed against T1, UNK ZnF1-3 (assay: nsRBNS (natural sequence RNA bind-n-seq); RBNS binding buffer (assumed for nsRBNS): 25 mM Tris pH 7.5, 150 mM KCl, 3 mM MgCl2, 0.01% Triton X-100, 500 ug/ml BSA, 20 U/ml SUPERase-In, 4 C; UNK is unkempt and MSI1 is Musashi-1; names of the RNAs are library labels; protein concentration not given here; high values mean tight binding).

Binder | binding signal
B1 | 1.67 enrichment R
B2 | 1.48 enrichment R
B3 | 2.96 enrichment R
B4 | 0.698 enrichment R
B5 | 1.17 enrichment R
B6 | 1 enrichment R
B7 | 0.798 enrichment R
B8 | 0.505 enrichment R
B9 | 1.06 enrichment R
B10 | 1.36 enrichment R
B11 | 0.686 enrichment R
B12 | 1.35 enrichment R
B13 | 1.23 enrichment R
B14 | 1.06 enrichment R
